# Data from PMC4336329 (PLoS ONE, 2015).
# About 2,200 (0.71%) of roughly 310,000 compounds showed an effect of 50% or more. The effect is printed as a negative number. The list shows a part of the results.
# Biological target: human ether-à-go-go-related gene (hERG) potassium channel (human, UniProt Q12809)
# Assay: primary screen, population patch clamp on CHO cells stably expressing hERG
# Sequence of human ether-à-go-go-related gene (hERG) potassium channel (Q12809 whole entry, looked up): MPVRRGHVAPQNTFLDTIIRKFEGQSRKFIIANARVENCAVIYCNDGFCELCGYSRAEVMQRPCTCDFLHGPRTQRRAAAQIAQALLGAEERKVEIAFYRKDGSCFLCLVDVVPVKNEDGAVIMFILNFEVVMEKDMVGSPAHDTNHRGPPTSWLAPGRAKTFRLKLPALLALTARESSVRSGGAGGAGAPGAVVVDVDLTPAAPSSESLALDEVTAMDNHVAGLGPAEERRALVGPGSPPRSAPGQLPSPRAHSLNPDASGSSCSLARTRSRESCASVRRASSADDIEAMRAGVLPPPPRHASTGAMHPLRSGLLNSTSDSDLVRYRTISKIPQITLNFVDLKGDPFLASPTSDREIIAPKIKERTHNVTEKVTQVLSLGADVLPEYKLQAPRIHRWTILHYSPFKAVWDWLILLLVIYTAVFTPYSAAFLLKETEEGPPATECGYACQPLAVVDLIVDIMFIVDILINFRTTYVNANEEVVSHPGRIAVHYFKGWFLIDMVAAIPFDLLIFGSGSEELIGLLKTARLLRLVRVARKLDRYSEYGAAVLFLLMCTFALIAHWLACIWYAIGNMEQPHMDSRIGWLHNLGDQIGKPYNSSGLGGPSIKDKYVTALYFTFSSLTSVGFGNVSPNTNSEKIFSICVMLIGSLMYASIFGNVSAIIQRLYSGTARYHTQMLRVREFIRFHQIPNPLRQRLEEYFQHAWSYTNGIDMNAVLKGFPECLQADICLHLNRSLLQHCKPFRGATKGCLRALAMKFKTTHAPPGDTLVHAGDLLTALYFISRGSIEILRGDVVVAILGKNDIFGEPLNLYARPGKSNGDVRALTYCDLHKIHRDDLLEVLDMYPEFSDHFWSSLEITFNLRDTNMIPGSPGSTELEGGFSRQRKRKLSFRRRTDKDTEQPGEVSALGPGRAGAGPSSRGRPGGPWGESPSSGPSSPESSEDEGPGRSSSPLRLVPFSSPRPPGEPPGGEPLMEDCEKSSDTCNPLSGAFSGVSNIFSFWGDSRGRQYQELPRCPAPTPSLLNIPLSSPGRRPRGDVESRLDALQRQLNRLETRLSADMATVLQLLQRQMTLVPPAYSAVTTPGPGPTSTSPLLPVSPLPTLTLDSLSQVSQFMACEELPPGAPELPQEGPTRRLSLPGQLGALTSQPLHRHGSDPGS
row,Structure (SMILES),"hERG current change (%, negative = inhibition) at 1uM [%]"
1,c1ccc(COc2nsnc2N2CCOCC2)cc1,7.91
2,c1ccc(-c2ccc(OCCCn3cncn3)cc2)cc1,-7.58
3,COc1ccc(CCNC2CCCCC2)cc1OC.Cl,9.2
4,CCc1nc(SCC(=O)Nc2nnc(CC(C)C)s2)n[nH]1,19
5,Cc1cc(C)c(NC(=O)CNC(=O)c2ccc(-n3cncn3)c([N+](=O)[O-])c2)c(C)c1,10.9
6,COc1ccccc1CNC(=O)C(=O)NCC(c1ccco1)N1CCOCC1 (centres unmarked),5.07
7,CN1CCN(C(=O)c2ccc3c(c2)NC(=O)C(C)(C)O3)CC1,-1.46
8,CN(Cc1ccccc1)S(=O)(=O)c1ccc(OCC(=O)N2CCOCC2)cc1,-0.797
9,CC1CCCN(C(=O)Cn2cnc3c2c(=O)n(C)c(=O)n3C)C1 (centres unmarked),12.7
10,CC(C)CCSc1nc2c(c(=O)[nH]c(=O)n2C)n1CCc1ccccc1,7.85
11,CC(C)NC(=O)NC(=O)CN1C(=O)NC2(CCc3ccccc3C2)C1=O (centres unmarked),4.4
12,O=C(CCN1CCCC1=O)NC1CCCc2c1cnn2-c1ccccc1F (centres unmarked),10.3
13,CCN1C(=O)c2cccc3c(S(=O)(=O)Nc4ccc(O)c(C(=O)O)c4)ccc1c23,18.7
14,Cc1ccc(NC(=S)NC(=O)c2ccc(-c3ccccc3)cc2)c(C)c1,10.1
15,O=C(COCc1cc(-c2ccc3c(c2)OCO3)on1)Nc1cccnc1Cl,12.1
16,O=C(c1ccco1)N1CCN(C(=S)Nc2cc(F)cc(F)c2)CC1,11.6
17,Cc1ccc(-c2nn(CCC(=O)O)cc2CCC(=O)O)cc1,10.3
18,O=C1c2ccccc2C(=O)c2c1cccc2N1CCOCC1,0.232
19,CCCN1CCC(=O)N([C@H](COc2ccccc2)CC(C)C)CC1,-48.1
20,CCc1nc(SCC(=O)N2CCN(c3ccccc3)CC2)c2oc3ccccc3c2n1,5

row,Structure (SMILES),"hERG current change (%, negative = inhibition) at 1uM [%]"
1,Cc1cc(C(=O)Nc2ccccc2C)n(-c2ccccc2)n1,14.7
2,Cc1c(-n2c(SCC(=O)NC(C)C)nc3ccccc3c2=O)c(=O)n(-c2ccccc2)n1C,12.8
3,CC(C)(CO)NC(=O)C(Cc1ccccc1)N1C(=O)c2ccccc2C1=O (centres unmarked),13.5
4,C=C(CO)C1Cc2cc(C(C)=O)ccc2O1 (centres unmarked),9
5,CCCn1cc(CN2CCC(n3nccc3NC(=O)c3ccccc3)CC2)c(C)n1,-0.739
6,CN(C)/C=C(\C#N)C(=O)N/N=C/c1ccc(F)cc1,4.98
7,O=C(CCCCCCC(=O)Nc1ccccc1)NO,10.8
8,CCCn1nc(C(=O)NNC(=O)Cc2ccc(S(=O)(=O)N3CCOCC3)s2)c2ccccc2c1=O,2.16
9,Cc1noc(C)c1C(=O)Nc1ccc2c(c1)CCC2,3.87
10,OCCOCCn1c(C(CO)Nc2nc(-c3ccc(Cl)cc3)cs2)nc2ccccc21 (centres unmarked),5.34
11,COCCNC(=O)c1ccc2c(c1)ncn2-c1cccc(C)c1,0.687
12,CCOC(=O)Nc1ccc2c(c1)N(C(=O)CCN1CCN(CCO)CC1)c1ccccc1S2.Cl,3.53
13,COCCCN1C(=O)c2ccc(C(=O)NCc3ccco3)cc2C1=O,1.6
14,CCn1ncc(C2=NOC(C(=O)NCCc3ccccc3)C2)c1C (centres unmarked),4.86
15,Cc1c(C(=O)OCC(=O)N2CCC(C)CC2)oc2ccccc12,-3.05
16,S=C(NCc1ccc(Cl)c(Cl)c1)Nc1ccc2c(c1)OCO2,-1.56
17,CCc1ccccc1OC[C@@H](O)CN[C@H]1CCCc2ccccc21.O=C(O)C(=O)O,4.4
18,COc1cc(CCC(=O)Nc2ccc(Cl)c(C(F)(F)F)c2)cc(OC)c1OC,17.3
19,CC1CC(C)CN(c2ccc(NS(=O)(=O)c3ccccc3)cc2C(=O)O)C1 (centres unmarked),1.93
20,COc1ccccc1-c1ccc2nnc(SCC(=O)N3CCCC3)n2n1,11.8

row,Structure (SMILES),"hERG current change (%, negative = inhibition) at 1uM [%]"
1,CCc1ccc(C(=O)Nc2cccc(-c3nn[nH]n3)c2)s1,12
2,COc1ccc(CC(NC(C)=O)C(=O)N2CCN(C(=O)Nc3cccc(F)c3)CC2)cc1OC (centres unmarked),7.65
3,O=C(C1CCN(S(=O)(=O)c2cccc3cccnc23)CC1)N1CCN(C2CCCC2)CC1,14.7
4,C[C@H](NC(=O)[C@@H]1Cc2ccccc2CN1)C(=O)NCC1CCCO1 (some centres unmarked),22.3
5,CCCOc1ccccc1/C=N/NC(=O)C1CC1,10.8
6,O=C(O)CCSc1nnc(-c2ccncc2)n1-c1ccccc1,6.18
7,CC(C)(CNS(=O)(=O)c1ccc2ccccc2c1)N1CCOCC1,4.09
8,Cc1ccc(Nc2nnc(-c3ccncc3)s2)c(Br)c1,-17.6
9,Cc1cc(NC(=O)CSc2nc(N)c(NC(=O)c3ccccc3F)c(=O)[nH]2)no1,24.6
10,CCN(CC)c1nc2ccccc2[nH]c1=O,12.3
11,O=C(O)c1ccccc1/C=N/NC(=O)c1cc(-c2ccco2)nc2ccccc12,12.8
12,CCOC(=O)c1[nH]c2ccc(C)cc2c1N,15
13,Cc1ccc(C)c(S(=O)(=O)N2CCCC2CNC(=O)C(=O)NCc2ccco2)c1 (centres unmarked),-12.4
14,CC12CC(O)C3c4ccc(O)cc4CCC3C1CC/C2=N\O (centres unmarked),11.7
15,O=C1C2C3C=CC(CC3)C2C(=O)N1/N=C/c1ccc(O)c(O)c1 (centres unmarked),-15
16,CN(Cc1ccccc1)C(=O)CSc1nc2ccccc2[nH]1,8.86
17,CCOC(=O)c1c(C)nsc1NC(=O)c1ccco1,5.14
18,CCN1C(=O)OC2(CCCCC2)C1(C)O (centres unmarked),10.3
19,CCN(CC)CCSc1nc(O)c(-c2ccccc2)c(=O)n1-c1ccccc1.Cl,3.79
